Source: the supplement of paper PMC10126150
Values marked as one replicate rest on one cluster of the flow cell; about a third of the high ones do not repeat.

System: ATP
Test: switch fluorescence ratio, 500 uM ATP over buffer (Cy3 cluster intensity, sum of 5 cycles each) (fold (ratio)); higher = stronger signal-on switching upon ATP binding; sequences stand for … in TCGTCGGCAGCGTCAGATGTGTATAAGAGACAGTTTTTTTTTTTTTTTTTTTTTTTTT…TC
Details: aptamer strand: ATP DNA aptamer (quencher-CACCTGGGGGAGTATTGCGGAGGAAGG + anchor), 100 nM annealed; ATP concentration: 500 uM; one replicate
In short: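 After annealing to 100 nM quencher-labelled ATP aptamer, Cy3-labelled switching-strand clusters on a modified Illumina MiSeq flow-cell were imaged in selection buffer. A second image followed after 15 min with 500 uM ATP at 22 °C, and five such buffer/ATP cycles were done, each separated by NaOH stripping and re-annealing. The fluorescence ratio, averaged per switch-domain sequence, is summed target-cycle over summed buffer-cycle Cy3 intensity per cluster, with clusters outside 100-1000 RFU excluded.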
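Also: ATP exposure 15 min at 22 °C before imaging.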

Row | Sequence | switch fluorescence ratio
1 | TACGGCTTGA | 1.01
2 | ATACGAAAAT | 1.04
3 | GCAATGGGCG | 1.02
4 | GATCAAAAGA | 1.03
5 | ACCATAGTTT | 1.03
6 | CTTTTGGTCT | 0.983
7 | ATGCACTTTG | 1.04
8 | GGTGATTCTA | 1.06
9 | TGAGGCTTGT | 0.901
10 | GCGGGGCGGC | 1
11 | GACCTTCTAG | 1.02
12 | TTCCGTCTTT | 0.997
13 | TAACTGACAT | 1.05
14 | CCGTCTACAA | 1.47
15 | CGAGTTTTGG | 0.972
16 | GACGCGTA | 1.1
17 | CCCGCGAGTG | 2.08
18 | GCGTTAGACA | 1.07
19 | TGGGACTTGA | 1.02
20 | CTCTCTCTGC | 1.17
21 | CCCTGTGGTC | 1
22 | ATCGGGCTAG | 0.967
23 | TGCCAGATAG | 1.05

Row | Sequence | switch fluorescence ratio
24 | AATGGCATAA | 1
25 | CAGTAGGCAC | 0.978
26 | GGTCAGGTAT | 0.957
27 | TTTTGCAT | 1.03
28 | CTCCTCCTGA | 1.53
29 | CGACTAGGCT | 1.09
30 | TCCTTTTTGA | 0.997
31 | GCGCGCCCGT | 0.981
32 | TTGAGGTACA | 0.971
33 | TACTGGTAGC | 1.03
34 | CATCCTTTGC | 1.22
35 | AGGAGAAAGG | 1.05
36 | AGTTCCGAGA | 1.06
37 | CCGTTAGTG | 1.01
38 | AAACGGAAAT | 1.03
39 | TTATCTCGAC | 1.04
40 | GAAATGACGT | 1.04
41 | TTCACATAAG | 0.998
42 | CATCCACGGG | 1.21
43 | CACAACAAAG | 1.01
44 | GCCGTCCAAG | 1.01
45 | GGAGTTGGTT | 0.98
46 | TGACGCCAAT | 1.21

Row | Sequence | switch fluorescence ratio
47 | GGGGGTCGCC | 0.971
48 | TGAGCATTCA | 1.04
49 | TGCTTAGGGG | 0.971
50 | GTCAGTTCAG | 1.02
51 | ACTCTTGAGA | 1.03
52 | AGACAAGAAA | 1.05
53 | TTTTTCCTCC | 1.9
54 | AATCGGAAAA | 0.996
55 | TCTTCAACAG | 2.01
56 | AAAGGAGTAT | 1.01
57 | TTTCCGCGTC | 2.72
58 | TGCAGCTACT | 1.69
59 | GATGTGCGGT | 1.08
60 | ACAGATACGT | 1.12
61 | TGTGGTTCTA | 1.01
62 | ACGGTAAACA | 1.07
63 | CACTCGCTTA | 1.17
64 | GAGCTAATCA | 0.954
65 | ACTATGCGGC | 1.14
66 | AAGCTGTATC | 1.06
67 | TTATCATGCG | 0.985
68 | TAGACCGCCT | 0.978
69 | ATACACGCGT | 1

Row | Sequence | switch fluorescence ratio
70 | ATGCATGAAC | 1.02
71 | CCTCGTATGT | 1.07
72 | CATTAAGATC | 1.01
73 | GTCGGTACAT | 1.03
74 | CTGTTTTTAG | 1.02
75 | TCAGGGTGA | 1.03
76 | CTCGAGAGAC | 1.4
77 | TCAGCGGACG | 1.07
78 | AAAGACCTTA | 1.06
79 | TCTCTATTG | 0.997
80 | CGACTAAGCT | 1.06
81 | ATCCGAGTA | 1.04
82 | GATAGGAACA | 1.01
83 | AGGCATTGTC | 1.07
84 | TTGACAGCCC | 1.04
85 | TCTTTGCCGG | 0.985
86 | TGCGATACCG | 1.14
87 | TCTACCAAGT | 1.3
88 | TTGATCGGGA | 0.941
89 | GGGTAAGCGG | 1.02
90 | TCAAGATGTA | 1.01
91 | TCAGGGGATA | 1
92 | TTTTCTTCTA | 1.02

Row | Sequence | switch fluorescence ratio
93 | ACAGATAAGG | 1.02
94 | CGTCGCACGG | 1.07
95 | GTAATAGAGC | 0.994
96 | GGATCACAAG | 1
97 | CGCTCACATA | 1.09
98 | GTCTTGGGGT | 0.977
99 | GAAAAGATTT | 0.98
100 | GGCTGTAAGA | 1.02
101 | ACCAGTTTGA | 0.976
102 | TGAAGCTGG | 0.979
103 | CCTTACGCGT | 1.03
104 | TGCTGGAATA | 0.983
105 | AATACTCCAA | 1.4
106 | TTTTCTGGTG | 1.18
107 | ACCTGATGGG | 1
108 | TCGTTGGCTA | 1
109 | TAGATCCGGT | 0.984
110 | CCAGTCCATT | 0.964
111 | CAAACTTAAT | 1.01
112 | TTCGTTTAGG | 0.99
113 | TGGGCATCGT | 0.979
114 | TCTGTACCAG | 1.03
115 | GGTACATAA | 1.01

Row | Sequence | switch fluorescence ratio
116 | TAATCAGGGT | 0.994
117 | CTAAATAACG | 0.975
118 | CATGGAATCA | 1
119 | GGGCGACTGA | 1.02
120 | AATTGGCAAG | 0.992
121 | GTGTCAGCAC | 0.973
122 | CGGTTTCACC | 0.976
123 | GATGGCAATG | 1.19
124 | ACTATTATGC | 1.13
125 | TATAGCCTTG | 0.969
126 | CGTGTTTATT | 1.01
127 | AATATTCACA | 1.04
128 | TCACCGTCGC | 1.11
129 | TGTAGTTAAC | 1.01
130 | GGATCTTTTC | 1.06
131 | GTATTTGTTT | 1.04
132 | CAGGCCTGC | 1.06
133 | GAGGTTCGTG | 0.947
134 | AAGTCTTATC | 0.968
135 | GAGAACGGAA | 1.05
136 | TGTGGACGGC | 0.995
137 | GCTCATCCGG | 1.4
138 | AATAAGGACA | 1.03

Row | Sequence | switch fluorescence ratio
139 | AGCGATATTA | 1.06
140 | CCACGTTTT | 0.987
141 | GGATAACTTT | 1.02
142 | ATTTTACGAG | 0.998
143 | ATACACTATT | 1.07
144 | TCATTACTAG | 1.18
145 | CATATAGACT | 0.98
146 | ATACAGAGA | 1
147 | GTTGGAAACG | 0.934
148 | TAAGGGACGG | 0.997
149 | GTTGAGTGGT | 0.973
150 | AGCTTAACAG | 1.01
151 | TTTAACAGTG | 1
152 | GTATGATGTT | 0.989
153 | AAACTAGTTT | 0.943
154 | TTGCATGTAC | 1.1
155 | GGTAATCGCA | 1.03
156 | GTTGGTAGAA | 1.02
157 | TGATGCCAGA | 1.01
